# This is one part of the list.
# B1: HPA (Helix pomatia), Q575S3 (protein)
# chain: MWAHLTGLLLICALSLSAAQRAQTGEIDCGSDSSWPKDPSDNPNRDNTREIVKHVTFSPQFCREPKVILSVTTLDAEHTKNLRYEARLKSVSPSGLSASCYSWHDGTIYRMKLSWLAVED
# Key:
# Assay in all cases: glycan array binding signal (z-score within array); higher = stronger binding
# Details in all cases: glycan notation: IUPAC condensed, linker removed
# [1] = target: Fuc(a1-4)GlcNAc
# Outline: (§1)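 The binding signal is a Z-score computed within each array. Data were drawn from 3228 arrays in the Consortium for Functional Glycomics database, restricted to those with a known protein sequence. Scores were averaged over arrays of the same protein sequence at different concentrations or buffers, and over linkers, and negative values can be taken as non-binding.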
# [2] = target: Fuc(b1-3)GlcNAc
# Outline: as §1
# [3] = target: Gal(a1-2)Gal
# Outline: as §1
# [4] = target: Gal(a1-3)Gal
# Outline: as §1
# [5] = target: Gal(a1-3)Gal(b1-3)GlcNAc
# Outline: as §1
# [6] = target: Gal(a1-3)Gal(b1-3)GlcNAc(b1-2)Man
# Outline: as §1
# [7] = target: Gal(a1-3)Gal(b1-3)GlcNAc(b1-2)Man(a1-3)[Gal(a1-3)Gal(b1-3)GlcNAc(b1-2)Man(a1-6)]Man(b1-4)GlcNAc(b1-4)GlcNAc
# Outline: as §1
# [8] = target: Gal(a1-3)Gal(b1-3)GlcNAc(b1-3)GalNAc
# Outline: as §1
# [9] = target: Gal(a1-3)Gal(b1-3)GlcNAc(b1-6)GalNAc
# Outline: as §1
# [10] = target: Gal(a1-3)Gal(b1-3)[Fuc(a1-4)]GlcNAc(b1-2)Man(a1-3)[Gal(a1-3)Gal(b1-3)[Fuc(a1-4)]GlcNAc(b1-2)Man(a1-6)]Man(b1-4)GlcNAc(b1-4)GlcNAc
# Outline: as §1
# [11] = target: Gal(a1-3)Gal(b1-4)Glc
# Outline: as §1
# [12] = target: Gal(a1-3)Gal(b1-4)GlcNAc
# Outline: as §1
# [13] = target: Gal(a1-3)Gal(b1-4)GlcNAc(b1-2)Man
# Outline: as §1
# [14] = target: Gal(a1-3)Gal(b1-4)GlcNAc(b1-2)Man(a1-3)[Gal(a1-3)Gal(b1-4)GlcNAc(b1-2)Man(a1-6)]Man(b1-4)GlcNAc(b1-4)GlcNAc
# Outline: as §1
# [15] = target: Gal(a1-3)Gal(b1-4)GlcNAc(b1-3)GalNAc
# Outline: as §1
# [16] = target: Gal(a1-3)Gal(b1-4)GlcNAc(b1-6)GalNAc
# Outline: as §1
# [17] = target: Gal(a1-3)Gal(b1-4)[Fuc(a1-3)]GlcNAc
# Outline: as §1
# [18] = target: Gal(a1-3)Gal(b1-4)[Fuc(a1-3)]GlcNAc(b1-2)Man(a1-3)[Gal(a1-3)Gal(b1-4)[Fuc(a1-3)]GlcNAc(b1-2)Man(a1-6)]Man(b1-4)GlcNAc(b1-4)GlcNAc
# Outline: as §1
# [19] = target: Gal(a1-3)GalNAc
# Outline: as §1
# [20] = target: Gal(a1-3)[Gal(a1-4)]Gal(b1-4)GlcNAc
# Outline: as §1
# [21] = target: Gal(a1-4)Gal(b1-3)GlcNAc(b1-2)Man(a1-3)[Gal(a1-4)Gal(b1-3)GlcNAc(b1-2)Man(a1-6)]Man(b1-4)GlcNAc(b1-4)GlcNAc
# Outline: as §1
# [22] = target: Gal(a1-4)Gal(b1-4)Glc
# Outline: as §1
# [23] = target: Gal(a1-4)Gal(b1-4)GlcNAc
# Outline: as §1
# [24] = target: Gal(a1-4)Gal(b1-4)GlcNAc(b1-2)Man(a1-3)[Gal(a1-4)Gal(b1-4)GlcNAc(b1-2)Man(a1-6)]Man(b1-4)GlcNAc(b1-4)GlcNAc
# Outline: as §1
# [25] = target: Gal(a1-4)Gal(b1-4)GlcNAc(b1-3)Gal(b1-4)Glc
# Outline: as §1
# [26] = target: Gal(a1-4)GlcNAc
# Outline: as §1
# [27] = target: Gal(a1-6)Glc
# Outline: as §1
# [28] = target: Gal(b1-2)Gal
# Outline: as §1
# [29] = target: Gal(b1-3)Gal
# Outline: as §1
# [30] = target: Gal(b1-3)Gal(b1-4)GlcNAc
# Outline: as §1
# [31] = target: Gal(b1-3)Gal(b1-4)GlcNAc(b1-2)Man(a1-3)[Gal(b1-3)Gal(b1-4)GlcNAc(b1-2)Man(a1-6)]Man(b1-4)GlcNAc(b1-4)GlcNAc
# Outline: as §1
# [32] = target: Gal(b1-3)GalNAc
# Outline: as §1
# [33] = target: Gal(b1-3)GalNAc(a1-3)[Fuc(a1-2)]Gal(b1-4)Glc
# Outline: as §1
# [34] = target: Gal(b1-3)GalNAc(a1-3)[Fuc(a1-2)]Gal(b1-4)GlcNAc
# Outline: as §1
# [35] = target: Gal(b1-3)GalNAc(b1-3)Gal
# Outline: as §1
# [36] = target: Gal(b1-3)GalNAc(b1-3)Gal(a1-4)Gal(b1-4)Glc
# Outline: as §1
# [37] = target: Gal(b1-3)GalNAc(b1-4)Gal(b1-4)Glc
# Outline: as §1
# [38] = target: Gal(b1-3)GalNAc(b1-4)[Neu5Ac(a2-3)]Gal(b1-4)Glc
# Outline: as §1
# [39] = target: Gal(b1-3)GlcNAc
# Outline: as §1
# [40] = target: Gal(b1-3)GlcNAc(a1-3)Gal(b1-4)GlcNAc
# Outline: as §1
# [41] = target: Gal(b1-3)GlcNAc(a1-6)Gal(b1-4)GlcNAc
# Outline: as §1
# [42] = target: Gal(b1-3)GlcNAc(b1-2)Man
# Outline: as §1
# [43] = target: Gal(b1-3)GlcNAc(b1-2)Man(a1-3)[Gal(b1-3)GlcNAc(b1-2)Man(a1-6)]Man(b1-4)GlcNAc(b1-4)GlcNAc
# Outline: as §1
# [44] = target: Gal(b1-3)GlcNAc(b1-2)Man(a1-3)[Gal(b1-3)GlcNAc(b1-2)Man(a1-6)]Man(b1-4)GlcNAc(b1-4)[Fuc(a1-6)]GlcNAc
# Outline: as §1
# [45] = target: Gal(b1-3)GlcNAc(b1-2)Man(a1-3)[GlcNAc(b1-4)][Gal(b1-3)GlcNAc(b1-2)Man(a1-6)]Man(b1-4)GlcNAc(b1-4)GlcNAc
# Outline: as §1
binder,measurement,setting,value
B1,glycan array binding signal (z-score),[1],-0.265
same,glycan array binding signal (z-score),[2],-0.261
same,glycan array binding signal (z-score),[3],-0.263
same,glycan array binding signal (z-score),[4],-0.254
same,glycan array binding signal (z-score),[5],-0.256
same,glycan array binding signal (z-score),[6],-0.26
same,glycan array binding signal (z-score),[7],-0.235
same,glycan array binding signal (z-score),[8],-0.236
same,glycan array binding signal (z-score),[9],-0.264
same,glycan array binding signal (z-score),[10],-0.233
same,glycan array binding signal (z-score),[11],-0.261
same,glycan array binding signal (z-score),[12],-0.261
same,glycan array binding signal (z-score),[13],-0.248
same,glycan array binding signal (z-score),[14],-0.238
same,glycan array binding signal (z-score),[15],-0.251
same,glycan array binding signal (z-score),[16],-0.255
same,glycan array binding signal (z-score),[17],-0.27
same,glycan array binding signal (z-score),[18],-0.245
same,glycan array binding signal (z-score),[19],-0.217
same,glycan array binding signal (z-score),[20],0.059
same,glycan array binding signal (z-score),[21],-0.232
same,glycan array binding signal (z-score),[22],-0.257
same,glycan array binding signal (z-score),[23],-0.261
same,glycan array binding signal (z-score),[24],-0.222
same,glycan array binding signal (z-score),[25],-0.258
same,glycan array binding signal (z-score),[26],-0.265
same,glycan array binding signal (z-score),[27],-0.266
same,glycan array binding signal (z-score),[28],-0.259
same,glycan array binding signal (z-score),[29],-0.259
same,glycan array binding signal (z-score),[30],-0.251
same,glycan array binding signal (z-score),[31],-0.266
same,glycan array binding signal (z-score),[32],-0.089
same,glycan array binding signal (z-score),[33],0.169
same,glycan array binding signal (z-score),[34],0.617
same,glycan array binding signal (z-score),[35],-0.258
same,glycan array binding signal (z-score),[36],-0.263
same,glycan array binding signal (z-score),[37],-0.26
same,glycan array binding signal (z-score),[38],-0.269
same,glycan array binding signal (z-score),[39],-0.258
same,glycan array binding signal (z-score),[40],-0.252
same,glycan array binding signal (z-score),[41],-0.251
same,glycan array binding signal (z-score),[42],0.558
same,glycan array binding signal (z-score),[43],-0.259
same,glycan array binding signal (z-score),[44],-0.259
same,glycan array binding signal (z-score),[45],-0.244

# Reference: the supplement of paper PMC8728848
